These results are taken from PubChem BioAssay AID1159614 (National Center for Advancing Translational Sciences (NCATS), 2016).

About 65 (0.1%) of roughly 45,000 compounds were called active. Calls come from the whole dose curve; as a rule, active = well fitted activation curve with a large enough effect; inconclusive = small, poorly fitted or top-dose-only effect; inactive = no such curve, though single readings can be large or run the other way. The list shows a part of the results.

In the assay the target is Galactocerebrosidase (Homo sapiens) (UniProt P54803). Kind of assay: A Novel Cell-Based Assay to Identify Small Molecules for B -Galactocerebrosidase. Note: 0% is about no effect; nearly all actives have a fitted effect of over 65% in size. As to conditions: 145M-Twi-hGALC-G270D cells (Twitcher mouse brain line with human GALC G270D), HMU-beta-Gal fluorescence, 48 h; series mostly up to 57.5 µM; activation: at the top concentration. A digest of the protocol: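 Fluorogenic HMU-b-Gal hydrolysis (0.1 mM final, pH 5.2 citrate-phosphate with 1 mg/mL sodium taurocholate; carbonate stop buffer) measures mutant GALC activity after compound treatment of live 145M-Twi Twitcher brain cells stably carrying human GALC-G270D, with wild-type GALC line alongside; activation sought.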
Chain of UniProt P54803 (P54803 whole entry, looked up): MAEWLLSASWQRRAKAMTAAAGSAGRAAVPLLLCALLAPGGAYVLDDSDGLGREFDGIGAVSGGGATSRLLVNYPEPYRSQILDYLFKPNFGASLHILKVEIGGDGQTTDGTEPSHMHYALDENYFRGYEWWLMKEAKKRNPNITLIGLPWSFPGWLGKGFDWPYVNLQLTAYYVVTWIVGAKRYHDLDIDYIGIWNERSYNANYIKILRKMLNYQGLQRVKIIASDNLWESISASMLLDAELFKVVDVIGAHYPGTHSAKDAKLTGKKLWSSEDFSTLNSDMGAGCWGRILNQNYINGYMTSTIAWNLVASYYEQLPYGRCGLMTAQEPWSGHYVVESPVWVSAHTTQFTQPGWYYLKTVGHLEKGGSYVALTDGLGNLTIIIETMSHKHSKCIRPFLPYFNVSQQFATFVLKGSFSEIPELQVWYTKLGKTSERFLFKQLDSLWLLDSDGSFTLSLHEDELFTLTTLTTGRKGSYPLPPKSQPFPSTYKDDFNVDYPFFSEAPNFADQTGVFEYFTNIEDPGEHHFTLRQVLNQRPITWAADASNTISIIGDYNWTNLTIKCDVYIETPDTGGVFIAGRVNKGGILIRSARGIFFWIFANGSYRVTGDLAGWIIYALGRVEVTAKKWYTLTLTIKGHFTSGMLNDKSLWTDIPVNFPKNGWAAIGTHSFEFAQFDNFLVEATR
With `Cc1cc(C)c(S(=O)(=O)NCC(c2ccco2)N2CCOCC2)c(C)c1` (centres undefined), the “activation” value was inactive: -8.89%. In the case of `CCOC(=O)N1CCc2c(sc3c2c(=O)n(Cc2ccccc2)c(=O)n3Cc2cccc(C)c2)C1` it was inactive: -4.2%; in that of `Cc1ccccc1Nc1nn2c(=O)c3ccc(C(=O)NCc4ccccc4)cc3nc2s1`, inactive: -7.8%; in that of `CCn1c(=O)cc(OCC(=O)NCc2ccccc2OC)c2ccccc21`, inactive: -14.7%. The value for `COc1ccc(NC(=O)c2cc(C)nc3c2c(C)nn3-c2ccc(C)cc2)cc1OC` was inactive: -9.2%. In the case of `COc1ccccc1-c1nnc(C2CCN(C(=O)c3cccc(C)c3)CC2)o1` it was inactive: -14.8%; in that of `O=C(NCc1ccccc1)C(=O)NCC(c1ccco1)S(=O)(=O)c1ccc(Cl)cc1` (centres undefined), inactive: -8.44%; in that of `CCOc1ccc(NC(=O)CN2CCN(S(=O)(=O)c3ccc(OC)cc3)CC2)cc1`, inactive: -11.7%. Regarding `CCOc1cc(OCC)cc(C(=O)Nc2cccc(-c3nc4ccccc4[nH]3)c2)c1`, the “activation” value was inactive: -21.2%. In the case of `COc1cccc(Cn2c(=O)n(-c3cccc(Cl)c3)c(=O)c3c4c(sc32)CN(C(C)=O)CC4)c1` it was inactive: -33.4%. In the case of `C=CCC(CC=C)(CNC(=O)C(=O)Nc1ccc(C)cc1)c1ccccc1` it was inactive: 21.7%.

Take `CSc1ncc(Cl)c(C(=O)Nc2ccc(S(=O)(=O)Nc3nccc(C)n3)cc2)n1`: the “activation” value was inactive: -8.3%. On to `CC(=O)c1ccc(NC(=O)CCc2c(C)nc3c(c2C)c(=O)n(C)c(=O)n3C)cc1`, for which the “activation” value is inactive: -1.43%.

For the compound `CC(=O)C1=C(c2ccccc2)N(C(C)=O)n2c(nnc2C2CCCCC2)S1`, the “activation” value was inactive: -26.8%.

For `CCCCN(C)CCCNC(=O)CN1N=C(c2ccc(OC)cc2)CCC1=O`, the “activation” value was inactive: -5.14%. With `Cc1c2cnn(CC(=O)N3CCN(c4ccccc4)CC3)c(=O)c2c(C)n1Cc1ccccc1Cl`, the “activation” value was inactive: -26.1%.

Turning to `CC1=C(C)C(=O)C(C(CCCCCC(=O)O)c2ccccc2)=C(C)C1=O` (centres undefined), the “activation” value was inactive: -6.46%. In the case of `CCCCN(C)CCCNC(=O)C1CCN(S(=O)(=O)CC)CC1` it was inactive: -10.3%; in that of `Cc1ccc(CCNC(=O)c2ccc3[nH]c(C)c(C)c3c2)cc1`, inactive: 9.8%. For `Cc1cc(C)cc(-n2cnc3cc(C(=O)NC4CCCCCC4)ccc32)c1`, the “activation” value was inactive: -0.305%.

As for `COc1ccc(CCNC(=O)c2cc3n(n2)CCCN(Cc2ccc(C)cc2)C3=O)cc1OC`, the “activation” value is inactive: -14.3%. Take `CCN(CC)c1ccc(NC(=O)CN2CCN(c3ccccc3F)CC2)cc1`: the “activation” value was inactive: -7.3%. Turning to `Cc1[nH]c2ccc(Br)cc2c1CCNC(=O)c1cc2ccccc2oc1=O`, the “activation” value was inactive: -3.7%. The value for `O=C(O)Cn1cnnn1` was inactive: -11.3%; that for `COC(=O)CN1C(=O)C(C)(C)c2cc(S(=O)(=O)Nc3ccc(Br)cc3F)ccc21` was inactive: -23.5%. The value for `CCOc1ccc(C2=NC(c3cccs3)=Nc3ccc(CC)cc3N2)cc1OCC` was inactive: -6%; that for `O=S(=O)(NCCS(=O)(=O)N1CCN(c2cccc(Cl)c2)CC1)c1ccc(F)cc1` was inactive: -15.3%; that for `O=C(NCc1ccccc1F)c1sc2ncccc2c1-n1cccc1` was inactive: -15.3%. In the case of `CCn1cc2nc(SCC(=O)Nc3ccc(C)cc3)n(Cc3ccc(C)cc3)c(=O)c2n1` it was inactive: -17.7%; in that of `Cc1cc(C)n(CCc2nc3c4ccccc4nc(N4CCN(c5cccc(C)c5C)CC4)n3n2)n1`, inactive: -18.5%.

As for `Cc1cccc(NC(=O)CN2C(=O)C(c3ccccc3)=NC23CCC(C)CC3)c1` (centres undefined), the “activation” value is inactive: -10.4%. In the case of `CC(=O)c1cccc(-n2c(=O)c3c4c(sc3n(Cc3cccc(C)c3)c2=O)CN(C(C)=O)CC4)c1` it was inactive: -16.3%; in that of `COc1ccc(-n2nc3cc(C)c(NC(=O)c4ccc(-c5ccc(Br)cc5)o4)cc3n2)cc1`, inactive: -12.1%. In the case of `CNCCc1ccccn1` it was inactive: -18.1%. In the case of `CC(=O)N1CCCc2cc(S(=O)(=O)N3CCCC(C(=O)Nc4ccc(C)cc4C)C3)ccc21` (centres undefined) it was inactive: -24.8%.

On to `COCCNC(=O)C1CCN(Cc2cc3ccccc3n2Cc2ccc(C)cc2)CC1`, for which the “activation” value was inactive: -13.1%. As for `COCCn1c(CNC(=O)c2cccc(C)c2)nc2cccnc21`, the “activation” value is inactive: -7.47%. The value for `COc1ccc(NC(=O)c2ccc(NC(=O)N3CCSc4ncccc43)cc2)cc1` was inactive: -6.3%; that for `COc1ccccc1NC(=O)C1=C(C)Nc2nc(SCc3ccccc3)nn2C1c1cccc(O)c1` (centres undefined) was inactive: 20.8%; that for `CCCCNC(=O)C(CC)Sc1nc2ccccc2c(=O)n1Cc1ccco1` (centres undefined) was inactive: -14.5%. In the case of `COCCCNC(=O)Cn1c(=O)n(-c2ccc(C)c(C)c2)c(=O)c2c3c(sc21)CCCCC3`, the “activation” value was inactive: -11.7%. The value for `COc1ccccc1CNC(=O)c1ccc2[nH]c(C)c(C)c2c1` was inactive: -4.91%.

Turning to `COc1ccc(NC(=O)c2nnn(Cc3nc(-c4cc(OC)c(OC)c(OC)c4)oc3C)c2C)cc1Cl`, the “activation” value was inactive: 10.7%. In the case of `O=C(COc1ccc(F)cc1)Nc1nnc(S(=O)(=O)N2CCCC2)s1` it was inactive: -2.31%. The value for `COc1ccc(OC)c(NS(=O)(=O)c2ccc(-n3cccn3)cc2)c1` was inactive: -4.28%; that for `CCOC(=O)c1cccc(NC(=O)Cn2c(=O)c3cccn3c3ccccc32)c1` was inactive: -31.2%; that for `Cc1ccc(C(=O)c2sc(Nc3ccccc3)c(S(=O)(=O)c3ccccc3)c2N)c(C)c1` was inactive: -22.8%.

As for `Cc1cccc(N(C)S(=O)(=O)c2nnc(NC(=O)c3cccs3)s2)c1`, the “activation” value is inactive: -10.8%. In the case of `Cc1cc(C)n2nc(CNC(=O)c3c(F)cccc3F)nc2n1`, the “activation” value was inactive: -19.3%.

With `NCCCCCC(=O)O`, the “activation” value is inactive: -19.7%. The value for `COCCNC(=O)c1sc2ncccc2c1-n1c(C)ccc1C` was inactive: -15.3%; that for `CCC(C)n1c(=O)c2sccc2n2c(CCCC(=O)NCc3ccccc3Cl)nnc12` (centres undefined) was inactive: -7.69%. For `COCCNC(=O)CN1C(=O)c2cccnc2Sc2ccccc21`, the “activation” value is inactive: -4.1%. As to `O=C(Cn1ncc2c1-c1ccccc1OC2)N1CCN(c2ccccc2)CC1`, the “activation” value is inactive: -18.5%. In the case of `COc1cccc2c(C)cc3nnc(SCC(=O)Nc4ccc(C)cc4)n3c12`, the “activation” value is inactive: -3.98%. The value for `O=C(c1ccc2c(c1)OCO2)c1cn(Cc2ccc(Cl)cc2)c2ccc(F)cc2c1=O` was inactive: -2.73%; that for `Cc1ccc(-c2cn3cccnc3n2)cc1NC(=O)Nc1ccc(F)cc1` was inactive: -12.9%. Turning to `COc1ccc2c(c1)c(=O)c(S(=O)(=O)c1ccc(F)cc1)cn2Cc1ccccc1Cl`, the “activation” value was inactive: 9.03%.

Take `CC(C)(C)OC(=O)N1CCC(c2c(C(=O)N3CCN(c4ccccn4)CC3)cnn2-c2ccc(F)cc2)CC1`: the “activation” value is inactive: -10.9%. The value for `CCN(CC)S(=O)(=O)c1ccc(C(=O)NCCSc2c(-c3ccc(F)cc3)[nH]c3ccccc23)cc1` was inactive: -15.6%; that for `CCCCOc1ccc(C(=O)N2CCCCC2CCN2CCOCC2)cc1` (centres undefined) was inactive: -10.8%; that for `CC1CCC(NC(=O)c2ccc(CS(=O)(=O)c3ccc(Cl)cc3)o2)CC1` (centres undefined) was inactive: 20.2%. In the case of `COc1ccc(CNC(=O)c2cnc(N(C)C)nc2)cc1`, the “activation” value is inactive: -15.1%.

On to `CCCOc1cccc(C(=O)N(Cc2sccc2C)C2CCS(=O)(=O)C2)c1` (centres undefined), for which the “activation” value is inactive: -5.95%. On to `CC(C)OCCCNC(=O)CN1C(=O)c2cccnc2Sc2ccccc21`, for which the “activation” value is inactive: -12.3%. For `CCn1c(=O)cc(OCC(=O)N2CCN(c3ccc(C)cc3)C(C)C2)c2ccccc21` (centres undefined), the “activation” value was inactive: -12.3%. In the case of `CC(=O)c1ccc(NC(=O)CSc2nc(-c3ccc(C)cc3)nc3c2c(=O)n(C)c(=O)n3C)cc1` it was inactive: -5.18%; in that of `CCC(=O)Nc1ccc2nc(SCCOc3ccc(C)cc3OC)sc2c1`, inactive: -6%; in that of `Cc1cc(Cl)ccc1OCC(=O)N(Cc1sccc1C)C1CCS(=O)(=O)C1` (centres undefined), inactive: -21.8%. The value for `CCN(CC)CCNC(=O)CN1N=C(c2ccc(OC)cc2)CCC1=O` was inactive: -7.06%; that for `Cc1cccn2cc(-c3cccc(NC(=O)C(C)C)c3)nc12` was inactive: -27.1%; that for `O=C(Cn1cc(SCc2c(F)cccc2Cl)c2ccccc21)N1CCCCC1` was inactive: -3.67%. In the case of `Cn1c(=O)n(Cc2ccccc2)c(=O)c2c1nc1n2CCN1c1ccccc1` it was inactive: -7.02%; in that of `COc1ccc(-c2nn3c(-c4ccccc4)nnc3c3ccccc23)cc1`, inactive: -13.1%; in that of `CC(=O)c1ccc(NC(=O)C2CCN(S(=O)(=O)c3c(C)noc3/C=C/c3ccc(C)cc3)CC2)cc1`, inactive: -19.5%.

With `Oc1ccccc1-c1nc2cnccn2c1Nc1ccc(Cl)cc1`, the “activation” value is inactive: -8.45%. The value for `COc1ccc(CNC(=O)CN2C(=O)COc3ccccc32)c(OC)c1` was inactive: -10.1%; that for `Cc1ccc2nc(NC(=O)CSc3cc(C)[nH]c(=O)n3)sc2c1` was inactive: -13.1%.

Regarding `CCOc1ccc(C(=O)N2CCc3cc(OC)c(OC)cc3C2COc2ccc3c(C)cc(=O)oc3c2)cc1OCC` (centres undefined), the “activation” value was inactive: -5.55%. In the case of `CCOc1ccc(CNC(=O)CCCn2c(=O)c3cccn3c3cccnc32)cc1` it was inactive: -2.15%; in that of `O=C1CCc2cc(S(=O)(=O)NCc3ccccc3)cc3c2N1CC3`, inactive: -0.256%; in that of `COc1ccc(CCNC(=O)c2cc(Nc3ccccc3)nc3ccccc23)cc1OC`, inactive: -1.98%. The value for `COc1cc(NC(=O)CCNC(=O)Cn2ccc3ccccc3c2=O)cc(OC)c1OC` was inactive: -2.28%; that for `COC(=O)c1c(NC(=O)CCCOc2ccc(C)cc2)sc2c1CCCC2` was inactive: -15.1%. The value for `CCn1c(C(=O)Nc2ccccc2C(=O)OC)cc2sc(Cl)cc21` was inactive: -14.7%. Take `CCCCCCCCCCOc1cc2c(=O)c(C(=O)OCC)c[nH]c2cc1OCC`: the activation was inactive: -12.7% [at 5.77 µM]. Consider `O=S(=O)(NCCc1csc(-c2cccc(F)c2)n1)c1cc(F)ccc1F`, for which the “activation” value is inactive: -19.8%.

Regarding `Cc1ccccc1Cn1c(SCc2ccc(C(=O)N3CCCCC3)cc2)nc2ccncc21`, the “activation” value is inactive: -17.9%. The value for `CCCOc1ccc(OC(=O)c2ccc(-c3ccc(CCC)cn3)cc2)cc1` was inactive: -24.2%; that for `O=C(CCCCn1c(=O)c2ccccc2n(Cc2ccc(F)cc2Cl)c1=O)NCCc1ccc(Cl)cc1` was inactive: 5.27%; that for `CCCn1ccc2c(OCC(=O)Nc3ccccc3C(=O)OCC)cccc2c1=O` was inactive: -10.2%. The value for `COC(=O)c1ccccc1NC(=O)CCCn1c(C)c2cnn(-c3ccccc3)c(=O)c2c1C` was inactive: -15.3%; that for `Cc1nc2c(c(C)nn2-c2ccccc2)c(C)c1CCC(=O)Nc1ccccc1` was inactive: -5.66%. The value for `Cc1ccc(NC(=O)Cn2c(=O)n(Cc3ccc(F)cc3)c(=O)c3cccnc32)cc1C` was inactive: -15%; that for `O=C(Nc1ccc(S(=O)(=O)N(Cc2ccccc2)c2ccccc2)cc1)c1ccccc1F` was inactive: -20.7%. For `CCN(CC)C(=O)C1=C(C)Nc2nc3ccccc3n2C1c1ccccc1F` (centres undefined), the “activation” value is inactive: -9.35%.

For the compound `CCC(=O)N1CCc2cc(CNC(=O)Nc3cc(OC)c(OC)c(OC)c3)ccc21`, the “activation” value was inactive: -18%. In the case of `CCOC(=O)c1cc2c(=O)n3ccccc3nc2n(CCCOC)c1=NC(=O)c1c(-c2c(F)cccc2Cl)noc1C` it was inactive: -4.42%. With `COc1ccccc1CNC(=O)Cc1c(C)c2cc3c(C)coc3c(C)c2oc1=O`, the “activation” value is inactive: -7.97%.
